Experimental data published in the supplement of paper PMC11417369.
The other results are listed elsewhere or left out.

Each sequence was assayed on PfAP2-HC AP2 domain (GST-tagged) (assay: gcPBM binding intensity (ln(normalized median fluorescence intensity)); higher = stronger DNA binding).
Procedure, shortened: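 After 1 h on an Agilent 4 × 180k array of primer-extended double-stranded 36-bp intergenic genomic probes and negative controls, bound GST-tagged P. falciparum DNA-binding domains were detected with Alexa488 anti-GST antibody and scanned at 488 nm. The domains had been expressed in E. coli, and binding took place in 1× PBS with 1% milk, 0.2 mg/ml BSA, 0.5% salmon testes DNA and 0.03% Triton X-100. Binding intensity is the highest Masliner-normalised natural-log median intensity across replicate spots of either probe orientation.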

Sequence	gcPBM binding intensity (ln)
ATCTATGGGTAGTATACACACTGTATATTTAGGAAT [CACACA_site5569]	9.69
TTACGAATAAAACAGTGTACATTGAATTTCTATGAG [XGTACX_site4771]	9.51
TCCATGCAGAAACACACACACAAAAAAAAATTCTTT [CACACA_site4099]	10.4
ACATGTTTTATGTGCACACAAAGTTGTTATGAGGTT [CACACA_site4031]	10
ATATAATATTTCATGTGGACACATTTTATGATTGTA [XGTACX_site8770]	9.67
ACACATATATATTATTATTATATAATATATATATAT [CACACA_negctrl_site1545]	9.66
AATCAAAATTAATTAACACACAATTTTAATATTCTT [CACACA_site2063]	9.55
ATAGTAAACGAAATAAAAAGATTAGCATAATATCCT [CACACA_negctrl_site1730]	9.79
TCCTGTGATTATATAACACACATTATTGCTTATAAG [CACACA_site1518]	9.78
ATATATTATATATATTACAACTTAAGAATATACATA [TGCATGCA_negctrl_site371]	9.57
ATTGTTTATATTGATTGTACTCATTTTTTTTTTATT [XGTACX_site1946]	9.8
ATATATTGAAAAAAATGTACGTATTTTTTTATGTTA [XGTACX_site4654]	9.57
ATTATATATATATATACACACACACCCTAAAAATAT [CACACA_site8463]	10.5
AATAAATATATTACATATATGTGTAGTATTTTTTTA [TGCATGCA_negctrl_site268]	9.61
TAAGCTTGTAACAGTTTACACACTAATATTTATAAA [CACACA_site3907]	9.6
TTATTAAATTTTTTTTGTACTTATATATATATATAT [XGTACX_site2443]	9.88
TATGAATGTATATGTTGTACATATAAATATTTATAT [XGTACX_site1146]	9.73
ATTATTATATAGTGTGCATGCAATATTAATAAAACC [TGCATGCA_site245]	10
TATATTTACATTGTAACACACATGAAATATTTATAT [CACACA_site6178]	9.83

Sequence	gcPBM binding intensity (ln)
AGAATAAAAAGGAACACACACACACCCATATATATA [CACACA_site3590]	10.7
TATGTTATATTATAAGGATAAATTTTGATTATATAA [TGCATGCA_negctrl_site600]	9.33
ATGTACATTTTTTTCACACATACATTAATTTATGAG [CACACA_site5801]	9.65
TAGACTAATCCCAAAAGTACAGAAAAATTATATTAT [XGTACX_site8663]	9.5
TAATTTCTTATGTATTGTACATATAATATATGATAT [XGTACX_site4898]	9.71
AAAATAAATAGATAAGCACACAAGCATATAGACATA [CACACA_site7958]	10.4
AATATATTTATGCTCATGCACTTTTTTTTTTTTTTT [GTGCAC_site9654]	9.75
TATCAATATTAAAAAGTGCAAAATAAAATATAAAAT [GTGCAC_site9486]	9.98
TATATTATATATTGGGGTACATATATATAAATATAA [XGTACX_site2296]	9.41
TTATGTTGTAAATGCACACATACAAATACAGATACA [CACACA_site4876]	9.81
GAAAACAAATATGTAGCACACATTCACATAATATAT [CACACA_site8731]	10.1
ATTATAATGGTAAAGTGTACAAATTTTTATTACACC [XGTACX_site5274]	9.7
ATAAATATAAAAATTTGTACATATATAGGTATAGGT [XGTACX_site1735]	9.91
ACATACAAGAATTAAACACACACAAAATATAAATTC [CACACA_site8985]	10.9
TCTTGTATATACAGTAGTACTAAAAATTATTAAATA [XGTACX_site7896]	9.35
TGTTTTTTGTTCTTTACAAAAAAAAAAAAAAAAAAA [GTGCAC_negctrl_site61]	8.81
TTTATTTATTATTAAAGTACTAAATTACATTATTAT [XGTACX_site6624]	9.71
TATTTAATTACATGAACACACATTAGATATTTTTAA [CACACA_site7405]	9.45
CATTATTTACCGCCGTGTACGTAATGAGAAATTAAA [XGTACX_site4662]	9.44

Sequence	gcPBM binding intensity (ln)
TTATTTCAAATTAATTTACACACTTCATACTAAAAG [CACACA_site9039]	9.6
TAATAAAAAAAGTGCACACACATAATATTTATATAT [CACACA_site7548]	9.99
ATAACAATTATTTATCTACACACTTTTATGTTATTT [CACACA_site7886]	9.99
TAAATTTTTTTTTTGATGCACTTAGTTATTATATTT	9.61
AATGGCAAAATAGGCACACACACATATACAGATATA [CACACA_site4726]	10.6
ATATATATATATATATGTACATATAATTTTTTTTTT [XGTACX_site6948]	9.64
TTTATATTAATTTGTGTAAATGCATATGATGAGCAT [XGTACX_negctrl_site254]	9.41
AAAAATAAAACAATTACACACATAATTTTATTTTTA [CACACA_site928]	9.69
TCCAAAATATCCTTCACACACGAACAGTTTCATTTA [CACACA_site5511]	9.87
ATTAAGTCTTATATTACACACGACATTGTAATGTAA [CACACA_site528]	9.61
AATTTTTTATACACAAGTACAAACGCGTAGTCACTT [XGTACX_site2458]	9.6
ATTCCACTGTTTTAGTGTACTGGTCGTTTTTTTTTT [XGTACX_site1738]	9.89
AAATAAAGAATATAAATACACACTTAAATATATATT [CACACA_site4007]	9.91
TGGACCAAACGACAAAAAAAAAGCAGAAAACAAAAA [GTGCAC_negctrl_site693]	9.76
ATTTATATATTTATATGTACATATCTATACATATAT [XGTACX_site7580]	10.1
TTTTTAAAAAAAAAAAAATAAAAAAAAAAAAAATAT [XGTACX_negctrl_site7]	9.38
GAATTTTTGACGATATAGGAAATAATTATCCTGAAG [XGTACX_negctrl_site61]	9.3
CTGTTAATTATATATTGTACAAAAGATATGATTATA [XGTACX_site6927]	9.39
